{"source": "a collection of fitness landscapes (doi:10.1016/j.celrep.2020.107928)", "parents": {"B1": {"name": "Caulobacter ParB omega fusion; a variant is named by its letters at X, in order, B8GW30 (parent)", "chain": "MESVVVGEPGMSEGRRGLGRGLSALLGEVDAAPAQAPGEQLGGSREAPIEILQRNPDQPRRTFREEDLEDLSNSIREKGVLQPILVRPSPDTAGEYQIVAGERAWRAAQRAGLKTVPIMVRELDDLAVLEIGIIENVQRADLNVLEEALSYKVLMEKFERTQENIAQTIGKSXSHVANXMRLLXLPDEVQSYLVSGELTAXHARAIAAAADPVALAKQIIEGGLSVRETEALARKAPNLSAGKSKGGRPPRVKDTDTQALESDLSSVLGLDVSIDHRGSTGTLTITYATLEQLDDLCNRLTRGI"}}, "note": "The full ranking holds about 81,000 sequences; the median of “one-hybrid fitness for binding NBS DNA” is about -0.1, and the highest 2% start at about 0.36. This is one part of the list."}
{"variants_of": "B1", "experiment": "one-hybrid fitness for binding NBS DNA (the Noc-binding site; scaled: cognate 1, non-cognate 0); higher = stronger binding", "settings": "with NBS DNA site", "how_it_was_run": "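Values were rescaled so that cognate is 1 and non-cognate is 0. Each is a fitness, the log change in a variant's read ratio to wild type from Illumina reads of plasmids before and after selection, with three replicate libraries pooled and variants under 10 reads dropped. Selection of the Caulobacter ParB libraries, four specificity codons randomised, used E. coli USO with a HIS3 reporter, site 19 bp from the promoter, on M9-minus-histidine with 0.1 mM IPTG and 5 mM 3-AT for 48 hours at 37°C.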"}
{"variant": "RQVC", "one-hybrid fitness for binding NBS DNA": "≤ 0.2"}
{"variant": "RLIG", "one-hybrid fitness for binding NBS DNA": "≤ 0.2"}
{"variant": "DFYR", "one-hybrid fitness for binding NBS DNA": "≤ 0.2"}
{"variant": "MHLC", "one-hybrid fitness for binding NBS DNA": "≤ 0.2"}
{"variant": "TIPI", "one-hybrid fitness for binding NBS DNA": "≤ 0.2"}
{"variant": "RIEI", "one-hybrid fitness for binding NBS DNA": "≤ 0.2"}
{"variant": "EMLG", "one-hybrid fitness for binding NBS DNA": "≤ 0.2"}
{"variant": "IYFF", "one-hybrid fitness for binding NBS DNA": "≤ 0.2"}
{"variant": "VQIC", "one-hybrid fitness for binding NBS DNA": "≤ 0.2"}
{"variant": "PSWQ", "one-hybrid fitness for binding NBS DNA": "≤ 0.2"}
{"variant": "CNLG", "one-hybrid fitness for binding NBS DNA": "≤ 0.2"}
{"variant": "GENW", "one-hybrid fitness for binding NBS DNA": "≤ 0.2"}
{"variant": "PIES", "one-hybrid fitness for binding NBS DNA": "≤ 0.2"}
{"variant": "TPKG", "one-hybrid fitness for binding NBS DNA": "≤ 0.2"}
{"variant": "QTDM", "one-hybrid fitness for binding NBS DNA": "≤ 0.2"}
{"variant": "ASRD", "one-hybrid fitness for binding NBS DNA": "≤ 0.2"}
{"variant": "QRPI", "one-hybrid fitness for binding NBS DNA": "≤ 0.2"}
{"variant": "QMAI", "one-hybrid fitness for binding NBS DNA": "≤ 0.2"}
{"variant": "EYYG", "one-hybrid fitness for binding NBS DNA": "≤ 0.2"}
{"variant": "EPPR", "one-hybrid fitness for binding NBS DNA": "≤ 0.2"}
{"variant": "KEVK", "one-hybrid fitness for binding NBS DNA": "≤ 0.2"}
{"variant": "HKYD", "one-hybrid fitness for binding NBS DNA": "≤ 0.2"}
{"variant": "WWNK", "one-hybrid fitness for binding NBS DNA": "≤ 0.2"}
{"variant": "TTHA", "one-hybrid fitness for binding NBS DNA": "≤ 0.2"}
{"variant": "SIFC", "one-hybrid fitness for binding NBS DNA": "≤ 0.2"}
{"variant": "SCGV", "one-hybrid fitness for binding NBS DNA": "≤ 0.2"}
{"variant": "WPWR", "one-hybrid fitness for binding NBS DNA": "≤ 0.2"}
{"variant": "AITK", "one-hybrid fitness for binding NBS DNA": "≤ 0.2"}
{"variant": "RYEW", "one-hybrid fitness for binding NBS DNA": "≤ 0.2"}
{"variant": "RCST", "one-hybrid fitness for binding NBS DNA": 0.531}
{"variant": "VQLP", "one-hybrid fitness for binding NBS DNA": "≤ 0.2"}
{"variant": "YCCG", "one-hybrid fitness for binding NBS DNA": "≤ 0.2"}
{"variant": "QKFA", "one-hybrid fitness for binding NBS DNA": "≤ 0.2"}
{"variant": "SEDS", "one-hybrid fitness for binding NBS DNA": "≤ 0.2"}
{"variant": "ARWR", "one-hybrid fitness for binding NBS DNA": "≤ 0.2"}
{"variant": "RMGR", "one-hybrid fitness for binding NBS DNA": 0.479}
{"variant": "PKHD", "one-hybrid fitness for binding NBS DNA": "≤ 0.2"}
{"variant": "LTNG", "one-hybrid fitness for binding NBS DNA": "≤ 0.2"}
{"variant": "TQDT", "one-hybrid fitness for binding NBS DNA": "≤ 0.2"}
{"variant": "IGAI", "one-hybrid fitness for binding NBS DNA": "≤ 0.2"}
{"variant": "GHYR", "one-hybrid fitness for binding NBS DNA": "≤ 0.2"}
{"variant": "TARS", "one-hybrid fitness for binding NBS DNA": "≤ 0.2"}
{"variant": "FGKT", "one-hybrid fitness for binding NBS DNA": "≤ 0.2"}
{"variant": "QEPS", "one-hybrid fitness for binding NBS DNA": "≤ 0.2"}
{"variant": "WVQT", "one-hybrid fitness for binding NBS DNA": "≤ 0.2"}
{"variant": "QAGW", "one-hybrid fitness for binding NBS DNA": "≤ 0.2"}
{"variant": "MIQN", "one-hybrid fitness for binding NBS DNA": "≤ 0.2"}
{"variant": "ALRC", "one-hybrid fitness for binding NBS DNA": "≤ 0.2"}
{"variant": "TEIL", "one-hybrid fitness for binding NBS DNA": "≤ 0.2"}
{"variant": "LGPL", "one-hybrid fitness for binding NBS DNA": "≤ 0.2"}
{"variant": "QSRM", "one-hybrid fitness for binding NBS DNA": 0.402}
{"variant": "AFQL", "one-hybrid fitness for binding NBS DNA": "≤ 0.2"}
{"variant": "PRSA", "one-hybrid fitness for binding NBS DNA": "≤ 0.2"}
{"variant": "FSHY", "one-hybrid fitness for binding NBS DNA": "≤ 0.2"}
{"variant": "AAMF", "one-hybrid fitness for binding NBS DNA": "≤ 0.2"}
{"variant": "DVSR", "one-hybrid fitness for binding NBS DNA": "≤ 0.2"}
{"variant": "LIPP", "one-hybrid fitness for binding NBS DNA": "≤ 0.2"}
{"variant": "SINM", "one-hybrid fitness for binding NBS DNA": "≤ 0.2"}
{"variant": "LLLK", "one-hybrid fitness for binding NBS DNA": "≤ 0.2"}
{"variant": "WWKR", "one-hybrid fitness for binding NBS DNA": 0.203}
{"variant": "APLF", "one-hybrid fitness for binding NBS DNA": "≤ 0.2"}
{"variant": "RVKR", "one-hybrid fitness for binding NBS DNA": 0.665}
{"variant": "QATT", "one-hybrid fitness for binding NBS DNA": 0.379}
{"variant": "KLHI", "one-hybrid fitness for binding NBS DNA": "≤ 0.2"}
{"variant": "YSNW", "one-hybrid fitness for binding NBS DNA": "≤ 0.2"}
{"variant": "SLLK", "one-hybrid fitness for binding NBS DNA": "≤ 0.2"}
{"variant": "ANTN", "one-hybrid fitness for binding NBS DNA": "≤ 0.2"}
{"variant": "KEAG", "one-hybrid fitness for binding NBS DNA": "≤ 0.2"}
{"variant": "PPCD", "one-hybrid fitness for binding NBS DNA": "≤ 0.2"}
{"variant": "CAMT", "one-hybrid fitness for binding NBS DNA": "≤ 0.2"}
{"variant": "RCRP", "one-hybrid fitness for binding NBS DNA": "≤ 0.2"}
{"variant": "TNCY", "one-hybrid fitness for binding NBS DNA": "≤ 0.2"}
{"variant": "FARC", "one-hybrid fitness for binding NBS DNA": "≤ 0.2"}
{"variant": "PIMQ", "one-hybrid fitness for binding NBS DNA": "≤ 0.2"}
{"variant": "DPPT", "one-hybrid fitness for binding NBS DNA": "≤ 0.2"}
{"variant": "YSYA", "one-hybrid fitness for binding NBS DNA": "≤ 0.2"}
{"variant": "RARE", "one-hybrid fitness for binding NBS DNA": "≤ 0.2"}
{"variant": "GKNY", "one-hybrid fitness for binding NBS DNA": "≤ 0.2"}
{"variant": "MKLR", "one-hybrid fitness for binding NBS DNA": "≤ 0.2"}
{"variant": "NRNP", "one-hybrid fitness for binding NBS DNA": "≤ 0.2"}
{"variant": "IPSN", "one-hybrid fitness for binding NBS DNA": "≤ 0.2"}
{"variant": "PATT", "one-hybrid fitness for binding NBS DNA": "≤ 0.2"}
{"variant": "QMTS", "one-hybrid fitness for binding NBS DNA": 0.403}
{"variant": "HHHV", "one-hybrid fitness for binding NBS DNA": "≤ 0.2"}
{"variant": "MLDR", "one-hybrid fitness for binding NBS DNA": "≤ 0.2"}
{"variant": "DSWT", "one-hybrid fitness for binding NBS DNA": "≤ 0.2"}
{"variant": "WATV", "one-hybrid fitness for binding NBS DNA": "≤ 0.2"}
{"variant": "ALAF", "one-hybrid fitness for binding NBS DNA": "≤ 0.2"}
{"variant": "QKWD", "one-hybrid fitness for binding NBS DNA": 0.405}
{"variant": "VIRY", "one-hybrid fitness for binding NBS DNA": "≤ 0.2"}
{"variant": "VMPA", "one-hybrid fitness for binding NBS DNA": "≤ 0.2"}
{"variant": "PAPV", "one-hybrid fitness for binding NBS DNA": "≤ 0.2"}
{"variant": "VVPS", "one-hybrid fitness for binding NBS DNA": "≤ 0.2"}
{"variant": "RQYP", "one-hybrid fitness for binding NBS DNA": "≤ 0.2"}
{"variant": "SRKS", "one-hybrid fitness for binding NBS DNA": "≤ 0.2"}
{"variant": "IVIG", "one-hybrid fitness for binding NBS DNA": "≤ 0.2"}
{"variant": "QQHY", "one-hybrid fitness for binding NBS DNA": 0.259}
{"variant": "SYLS", "one-hybrid fitness for binding NBS DNA": "≤ 0.2"}
{"variant": "MYPF", "one-hybrid fitness for binding NBS DNA": "≤ 0.2"}
{"variant": "QGTQ", "one-hybrid fitness for binding NBS DNA": "≤ 0.2"}
{"variant": "DRML", "one-hybrid fitness for binding NBS DNA": "≤ 0.2"}
{"variant": "DDGP", "one-hybrid fitness for binding NBS DNA": "≤ 0.2"}
{"variant": "KCLS", "one-hybrid fitness for binding NBS DNA": "≤ 0.2"}
{"variant": "CKAK", "one-hybrid fitness for binding NBS DNA": "≤ 0.2"}
{"variant": "RYKR", "one-hybrid fitness for binding NBS DNA": 0.744}
{"variant": "PFNN", "one-hybrid fitness for binding NBS DNA": "≤ 0.2"}
{"variant": "RQHG", "one-hybrid fitness for binding NBS DNA": "≤ 0.2"}
{"variant": "TQNA", "one-hybrid fitness for binding NBS DNA": "≤ 0.2"}
{"variant": "ESGF", "one-hybrid fitness for binding NBS DNA": "≤ 0.2"}
{"variant": "RMCT", "one-hybrid fitness for binding NBS DNA": 0.366}
{"variant": "LRFM", "one-hybrid fitness for binding NBS DNA": "≤ 0.2"}
{"variant": "NHTF", "one-hybrid fitness for binding NBS DNA": "≤ 0.2"}
{"variant": "LPSP", "one-hybrid fitness for binding NBS DNA": "≤ 0.2"}
{"variant": "QHPW", "one-hybrid fitness for binding NBS DNA": "≤ 0.2"}
{"variant": "VGFC", "one-hybrid fitness for binding NBS DNA": "≤ 0.2"}
{"variant": "DAVG", "one-hybrid fitness for binding NBS DNA": "≤ 0.2"}
{"variant": "DDGC", "one-hybrid fitness for binding NBS DNA": "≤ 0.2"}
{"variant": "CWLS", "one-hybrid fitness for binding NBS DNA": "≤ 0.2"}
{"variant": "RYMG", "one-hybrid fitness for binding NBS DNA": "≤ 0.2"}
{"variant": "ADVL", "one-hybrid fitness for binding NBS DNA": "≤ 0.2"}
{"variant": "TLVV", "one-hybrid fitness for binding NBS DNA": "≤ 0.2"}
{"variant": "NSHV", "one-hybrid fitness for binding NBS DNA": "≤ 0.2"}
{"variant": "NFLD", "one-hybrid fitness for binding NBS DNA": "≤ 0.2"}
{"variant": "HISI", "one-hybrid fitness for binding NBS DNA": "≤ 0.2"}
{"variant": "DMAL", "one-hybrid fitness for binding NBS DNA": "≤ 0.2"}
{"variant": "RCQC", "one-hybrid fitness for binding NBS DNA": "≤ 0.2"}
{"variant": "GLRC", "one-hybrid fitness for binding NBS DNA": "≤ 0.2"}
{"variant": "HHEI", "one-hybrid fitness for binding NBS DNA": "≤ 0.2"}
{"variant": "RWQY", "one-hybrid fitness for binding NBS DNA": "≤ 0.2"}
{"variant": "QKTR", "one-hybrid fitness for binding NBS DNA": 0.646}
{"variant": "WRQS", "one-hybrid fitness for binding NBS DNA": "≤ 0.2"}
{"variant": "NNQR", "one-hybrid fitness for binding NBS DNA": "≤ 0.2"}
{"variant": "YAYG", "one-hybrid fitness for binding NBS DNA": "≤ 0.2"}
{"variant": "HFCT", "one-hybrid fitness for binding NBS DNA": "≤ 0.2"}
{"variant": "QWWC", "one-hybrid fitness for binding NBS DNA": "≤ 0.2"}
{"variant": "VPYC", "one-hybrid fitness for binding NBS DNA": "≤ 0.2"}
{"variant": "RCDE", "one-hybrid fitness for binding NBS DNA": "≤ 0.2"}
{"variant": "THAE", "one-hybrid fitness for binding NBS DNA": "≤ 0.2"}
{"variant": "RVAM", "one-hybrid fitness for binding NBS DNA": "≤ 0.2"}
{"variant": "QIEK", "one-hybrid fitness for binding NBS DNA": "≤ 0.2"}
{"variant": "VLNC", "one-hybrid fitness for binding NBS DNA": "≤ 0.2"}
{"variant": "AVVG", "one-hybrid fitness for binding NBS DNA": "≤ 0.2"}
{"variant": "PNSR", "one-hybrid fitness for binding NBS DNA": "≤ 0.2"}
{"variant": "FPSI", "one-hybrid fitness for binding NBS DNA": "≤ 0.2"}
{"variant": "LSFR", "one-hybrid fitness for binding NBS DNA": "≤ 0.2"}
{"variant": "AFYR", "one-hybrid fitness for binding NBS DNA": "≤ 0.2"}
{"variant": "TYKT", "one-hybrid fitness for binding NBS DNA": "≤ 0.2"}
{"variant": "HQDK", "one-hybrid fitness for binding NBS DNA": "≤ 0.2"}
{"variant": "ADTT", "one-hybrid fitness for binding NBS DNA": "≤ 0.2"}
{"variant": "WHVF", "one-hybrid fitness for binding NBS DNA": "≤ 0.2"}
{"variant": "ALLL", "one-hybrid fitness for binding NBS DNA": "≤ 0.2"}
{"variant": "IGDM", "one-hybrid fitness for binding NBS DNA": "≤ 0.2"}
{"variant": "TNPS", "one-hybrid fitness for binding NBS DNA": "≤ 0.2"}
